{"source": "paper PMC4336329", "about": "(PLoS ONE, 2015)", "note": "Among all 310,000 compounds or so, about 2,200 (0.71%) showed an effect of 50% or more. The effect is printed as a negative number. Some of the results follow.", "data": [{"target": "human ether-à-go-go-related gene (hERG) potassium channel (human, UniProt Q12809)", "sequence (Q12809 whole entry, looked up)": "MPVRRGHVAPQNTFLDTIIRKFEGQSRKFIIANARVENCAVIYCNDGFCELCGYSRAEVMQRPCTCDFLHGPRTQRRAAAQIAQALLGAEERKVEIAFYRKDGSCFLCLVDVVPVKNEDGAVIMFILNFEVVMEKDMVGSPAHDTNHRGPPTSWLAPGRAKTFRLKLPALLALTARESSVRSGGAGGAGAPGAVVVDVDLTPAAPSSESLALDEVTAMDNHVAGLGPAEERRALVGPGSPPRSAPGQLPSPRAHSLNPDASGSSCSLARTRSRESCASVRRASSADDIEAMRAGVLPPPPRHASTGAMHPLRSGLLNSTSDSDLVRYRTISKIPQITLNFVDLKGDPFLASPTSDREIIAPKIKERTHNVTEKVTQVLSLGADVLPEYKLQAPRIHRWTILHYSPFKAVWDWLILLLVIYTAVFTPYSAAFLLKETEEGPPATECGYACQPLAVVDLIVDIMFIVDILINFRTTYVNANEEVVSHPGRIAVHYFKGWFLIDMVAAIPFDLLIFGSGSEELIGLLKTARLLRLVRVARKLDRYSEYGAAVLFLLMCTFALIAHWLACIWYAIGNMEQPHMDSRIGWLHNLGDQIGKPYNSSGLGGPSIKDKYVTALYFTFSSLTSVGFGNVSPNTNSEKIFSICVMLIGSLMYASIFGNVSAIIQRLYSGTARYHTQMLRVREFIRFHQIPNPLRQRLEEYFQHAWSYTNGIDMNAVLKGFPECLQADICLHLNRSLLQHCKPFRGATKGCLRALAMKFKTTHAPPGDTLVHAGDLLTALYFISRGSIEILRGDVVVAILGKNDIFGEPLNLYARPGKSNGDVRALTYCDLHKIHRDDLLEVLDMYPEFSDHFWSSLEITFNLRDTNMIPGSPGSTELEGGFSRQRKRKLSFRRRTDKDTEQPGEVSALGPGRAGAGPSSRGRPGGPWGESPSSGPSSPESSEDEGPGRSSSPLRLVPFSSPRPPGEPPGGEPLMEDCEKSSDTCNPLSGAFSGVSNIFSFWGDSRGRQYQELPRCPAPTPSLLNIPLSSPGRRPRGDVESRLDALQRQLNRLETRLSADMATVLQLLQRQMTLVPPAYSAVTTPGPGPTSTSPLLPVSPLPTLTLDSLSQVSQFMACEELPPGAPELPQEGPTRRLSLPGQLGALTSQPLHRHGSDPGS", "experiment": "primary screen, population patch clamp on CHO cells stably expressing hERG", "units": {"hERG current change (%, negative = inhibition) at 1uM": "%"}, "values": [{"molecule": "S=C(NCc1cccs1)Nc1ccccc1Cl", "hERG current change (%, negative = inhibition) at 1uM": 9.28}, {"molecule": "O=C(N/N=C\\C=C\\c1ccco1)C1COc2ccccc2O1", "note": "(stereo not shown)", "hERG current change (%, negative = inhibition) at 1uM": 11.3}, {"molecule": "COc1ccc(CNC(=O)c2ccc(S(=O)(=O)NCc3ccco3)cc2)cc1", "hERG current change (%, negative = inhibition) at 1uM": 9.81}, {"molecule": "COc1cccc(CNC(=O)[C@H](CCSC)NC(=O)N2CCn3c2nc2ccccc23)c1", "hERG current change (%, negative = inhibition) at 1uM": 12.6}, {"molecule": "Cc1ccccc1NC(=O)Cc1nc(CCl)cs1", "hERG current change (%, negative = inhibition) at 1uM": 10.6}, {"molecule": "O=C(/C=C/c1cccs1)Nc1ccncc1", "hERG current change (%, negative = inhibition) at 1uM": 10.5}, {"molecule": "COc1ccc(OC)c(-c2cc(C(=O)Nc3ccc(F)cc3F)no2)c1", "hERG current change (%, negative = inhibition) at 1uM": 10.9}, {"molecule": "C#CCOC(=O)C[N+](C)(C)C/C=C/c1ccccc1.[Cl-]", "hERG current change (%, negative = inhibition) at 1uM": 10}, {"molecule": "COc1cc(C2C(C#N)=C(N)OC3=C2C(=O)CC(C)(C)C3)ccc1OCCN1CCOCC1", "note": "(stereo not shown)", "hERG current change (%, negative = inhibition) at 1uM": 14.9}, {"molecule": "CCN1CCN(CC(O)COC(c2ccccc2)c2ccccc2C)CC1.O=C(O)C(=O)O", "note": "(stereo not shown)", "hERG current change (%, negative = inhibition) at 1uM": 8.96}, {"molecule": "CCOc1ccccc1NC(=O)CSc1nnc(Cc2cccn2C)n1-c1ccc(F)cc1", "hERG current change (%, negative = inhibition) at 1uM": -8.2}, {"molecule": "CCc1ccccc1NC(=O)N[C@H](C(=O)O)C(C)C", "hERG current change (%, negative = inhibition) at 1uM": 9.34}, {"molecule": "O=C(COC(=O)c1cc[n+]([O-])cc1)Nc1ccc(Br)cc1", "hERG current change (%, negative = inhibition) at 1uM": 0.628}, {"molecule": "CCc1ccc(-c2cc(C)no2)cc1S(=O)(=O)NCCCN1CCN(c2ccccc2)CC1", "hERG current change (%, negative = inhibition) at 1uM": 12.7}, {"molecule": "Cc1cc(NS(=O)(=O)c2ccc(NC(=S)NC(=O)c3ccc(C(C)(C)C)cc3)cc2)no1", "hERG current change (%, negative = inhibition) at 1uM": 16.3}, {"molecule": "COc1ccccc1C(=O)NCC(=O)OCC(=O)Nc1ccc2[nH]c(=O)[nH]c2c1", "hERG current change (%, negative = inhibition) at 1uM": -10.3}, {"molecule": "CCCCOCCCn1cnc2c([nH]c3cc(OC)ccc32)c1=O", "hERG current change (%, negative = inhibition) at 1uM": -3.86}, {"molecule": "O=C(COc1cccc(F)c1)NNC(=O)c1cccc(-n2cccc2)c1", "hERG current change (%, negative = inhibition) at 1uM": 11}, {"molecule": "CC(O)CN(Cc1ccc(Cl)cc1)CC(C)O", "note": "(stereo not shown)", "hERG current change (%, negative = inhibition) at 1uM": 13.8}, {"molecule": "O=C(N/C(=C/c1cccs1)c1nc2ccccc2[nH]1)c1ccccc1", "hERG current change (%, negative = inhibition) at 1uM": -3.04}, {"molecule": "COc1ccc(CCC(=O)Nc2cc(S(C)(=O)=O)ccc2Cl)cc1", "hERG current change (%, negative = inhibition) at 1uM": 7.15}, {"molecule": "Nn1c(COc2ccccc2F)nnc1SCC(=O)NC1CCCCC1", "hERG current change (%, negative = inhibition) at 1uM": 6.63}, {"molecule": "Cc1oc(C(C)(C)C)cc1C(=O)Nc1cccc(C(=O)O)c1", "hERG current change (%, negative = inhibition) at 1uM": 6.62}, {"molecule": "CCN1C(=O)c2ccc(C(=O)Nc3ccc4c(c3)OCO4)cc2C1=O", "hERG current change (%, negative = inhibition) at 1uM": 9.93}, {"molecule": "OCC1(Cc2cccc(Cl)c2)CCCN(Cc2cn[nH]c2C2CCCCC2)C1", "note": "(stereo not shown)", "hERG current change (%, negative = inhibition) at 1uM": 5.48}, {"molecule": "O=C(NCCCc1ccccc1)C(=O)NCC1OCCN1S(=O)(=O)c1ccccc1", "note": "(stereo not shown)", "hERG current change (%, negative = inhibition) at 1uM": 5.35}, {"molecule": "Cc1nc2ccc(NC(=O)[C@@H](NC(=O)c3c(F)cccc3F)C(C)C)cc2s1", "hERG current change (%, negative = inhibition) at 1uM": 6.58}, {"molecule": "CC(C)(C)C(=O)c1no[n+]([O-])c1/C(=N/O)C(C)(C)C", "hERG current change (%, negative = inhibition) at 1uM": -0.746}, {"molecule": "Cc1ccc(C(=O)OCC(=O)NCc2ccccc2)cc1S(=O)(=O)N1CCCCC1", "hERG current change (%, negative = inhibition) at 1uM": -6.92}, {"molecule": "CC(C)(C)OC(=O)NCCCC(CCCNC(=O)OC(C)(C)C)C(=O)O", "hERG current change (%, negative = inhibition) at 1uM": 3.84}, {"molecule": "Cc1ccccc1N1CCN(C2CCCN(C(=O)c3ccccn3)C2)CC1", "note": "(stereo not shown)", "hERG current change (%, negative = inhibition) at 1uM": 7.88}, {"molecule": "CC(=O)Oc1ccc(OC(C)=O)c(SCCCCC[NH+]2CCOCC2)c1.[Cl-]", "hERG current change (%, negative = inhibition) at 1uM": 1.19}, {"molecule": "CSc1ccccc1NC(=O)C1CCCN(S(C)(=O)=O)C1", "note": "(stereo not shown)", "hERG current change (%, negative = inhibition) at 1uM": 17.6}, {"molecule": "CN1CCN(S(=O)(=O)c2cccc(S(=O)(=O)c3ccc(Cl)cc3)c2)CC1", "hERG current change (%, negative = inhibition) at 1uM": -2.89}, {"molecule": "NC(=O)C1CCN(C(=O)C2CCN(S(=O)(=O)c3ccccc3)CC2)CC1", "hERG current change (%, negative = inhibition) at 1uM": 8.34}, {"molecule": "COC(=O)CCNCCSc1nnc(-c2ccco2)n1Cc1ccccc1.O=C(O)C(=O)O", "hERG current change (%, negative = inhibition) at 1uM": -32.1}, {"molecule": "Cc1cc(C)cc(NC(=O)C(OC(=O)c2ccc([N+](=O)[O-])o2)c2ccccc2)c1", "note": "(stereo not shown)", "hERG current change (%, negative = inhibition) at 1uM": 11}, {"molecule": "COC(=O)CSc1nnc(Cc2ccccc2)n1-c1ccc(C)cc1", "hERG current change (%, negative = inhibition) at 1uM": -0.227}, {"molecule": "O=C(C1=C(O)C(=O)N(CC2CCCO2)C1c1ccccc1[N+](=O)[O-])c1ccco1", "note": "(stereo not shown)", "hERG current change (%, negative = inhibition) at 1uM": 10}, {"molecule": "CCO[C@H]1OC(C(=O)N2CCN(Cc3ccc4c(c3)OCO4)CC2)=C[C@@H](c2csc3ccccc23)[C@@H]1CCCO", "hERG current change (%, negative = inhibition) at 1uM": 17}, {"molecule": "CC(Cc1cccs1)NC(=O)Nc1ccc(Cl)c(Cl)c1", "note": "(stereo not shown)", "hERG current change (%, negative = inhibition) at 1uM": 10}, {"molecule": "CC(=O)C1=C(C)NC(SCC(=O)c2ccc(F)cc2)=C(C#N)C1CC(C)C", "note": "(stereo not shown)", "hERG current change (%, negative = inhibition) at 1uM": 11.9}, {"molecule": "CC(C)(O)C(=O)NN(Cc1ccccc1)c1ccccc1", "hERG current change (%, negative = inhibition) at 1uM": 13.5}]}]}
